Results reported in PubChem BioAssay AID686978 (National Center for Advancing Translational Sciences (NCATS), 2013).
Out of some 420,000 compounds screened, about 64,000 (15%) were called active. The shares of active, inactive and inconclusive entries below differ from those in the screen. Calls come from the whole dose curve; as a rule, active = well fitted inhibition curve with a large enough effect; inconclusive = small, poorly fitted or top-dose-only effect; inactive = flat fitted curve, though single readings scatter. No potency is given beside an inconclusive call; the fits are too rough.

Test: qHTS for Inhibitors of human tyrosyl-DNA phosphodiesterase 1 (TDP1): qHTS in cells in absence of CPT; note: nearly all actives have a fitted effect of over 55% in size
Details: DT40 Tdp1-/- hTDP1 cells, no CPT, ATP luminescence, 48 h; activity change, negative = growth inhibition: at 46.2 µM (top of the series) unless noted
Procedure, shortened: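 Growth of hTDP1-complemented DT40 Tdp1-knockout cells is measured by ATP luminescence after at least 48 hr compound exposure at 37 °C, with DMSO substituting for the 20 nM CPT used in the parallel screen.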
% is set by controls: 0 for no effect and ±100 for the full control effect; potency is the fitted concentration of half-maximal effect; tags give direction and shape of the fitted curve.

Structure (SMILES) | activity change, negative = growth inhibition | Potency
O=C(OCC(=O)N1CCCCC1)c1ccc2c(c1)C(=O)N(Cc1ccco1)C2=O | inactive: 15.1% | –
CN(C)c1ccc(/C=C/C(=O)c2cccnc2)cc1 | inactive: -28.6% | –
O=C1C2C3c4ccccc4C(c4ccccc43)C2C(=O)N1CN1CCOCC1 (stereo not given) | – | inconclusive [inhibitor, single point]
COc1ccc(CC(=O)NC(C)C2COc3ccccc3O2)cc1OC (stereo not given) | inactive: -24.7% | –
Cc1ccc(Cn2cc(S(=O)(=O)c3ccccc3)c(=O)c3cc(F)c(N4CCOCC4)cc32)cc1 | – | inconclusive [inhibitor, single point]
CCCCn1c(=O)c2c(O)cc(=O)oc2c2ccccc21 | inconclusive: -25.4% [inhibitor] | –
Cc1ccc(F)c(S(=O)(=O)NC(=O)C2(C)CCN2C(=O)Cc2ccc(-c3ccccc3)cc2)c1 (stereo not given) | – | inconclusive [inhibitor, partial curve, poor fit]
CC(C)(Oc1ccc(Cl)cc1)C(=O)Nc1ccc(-c2nc3ncccc3o2)cc1 | – | active: 18.4 µM
Cc1ccnc(Nc2nc(-c3sc(C)nc3C)cs2)c1 | – | inconclusive [inhibitor, single point]
CC1C(=O)N(Cc2cn(Cc3ccco3)nn2)CCS(=O)(=O)N1Cc1ccc(-c2ccc(F)cc2Cl)cc1 (stereo not given) | – | inconclusive [inhibitor, single point]
CC(C)(C)c1nnc(NS(=O)(=O)c2ccc(F)cc2)s1 | – | inconclusive [inhibitor, partial curve, poor fit]
COc1ccccc1N1CCN(S(=O)(=O)CCNC(=O)c2cc(=O)c3ccccc3o2)CC1 | – | active: 25.9 µM
O=C(C1=COCCO1)N1CCN(c2nc3ccc([N+](=O)[O-])cc3s2)CC1 | – | active: 5.17 µM
CCCOc1ncnc2c1[nH]c1ccc(OC)cc12 | – | active: 8.2 µM
C/C=C/c1ccc(OCCOCCOc2cccc3cccnc23)c(OC)c1 | – | active: 14.6 µM
O=C(CC(=O)N/N=C\c1ccc(F)cc1)NCCc1ccccc1 | inactive: -3.12% | –
CN1CCC(N(C)C(=O)c2ccc(Cl)c(S(=O)(=O)N(C)c3ccc(Cl)cc3)c2)CC1 | – | inconclusive [inhibitor, single point]
Cc1ccccc1C(=O)Nc1cccc(-c2nc3cccnc3s2)c1 | – | active: 18.4 µM
CC(=O)Nc1ccc(NC(=O)/C=C/c2cccc(C(F)(F)F)c2)cc1 | – | inconclusive [inhibitor, full curve, poor fit]
Cc1cc(C)c(C)c(S(=O)(=O)N[C@@H](C)C(=O)OC(C)C(=O)NC(N)=O)c1C (stereo not given in full) | inactive: 4.64% | –
